Measurements taken from the RNAGym collection of RNA variant scans (doi:10.1073/pnas.2313332121).
This sample is rich in variants without activity.

B1: TPR 5TU (parent)
chain: GGAUCUUCUCGAUCUAACAAAAAAGACAAAUCUGCCACAAAGCUUGAGAGCAUCUUCGGAUGCAGAGGCGGCAGCCUUCGGUGGCGCGAUAGCGCCAACGUUCUCAACUAUGACACGCAAAACGCGUGCUCCGUUGAAUGGAGUUUAUCAUG

Variants of: B1
Assay: polymerase ribozyme fitness, log enrichment relative to wild type (log ratio); higher = more active; in vitro selection for triplet polymerase activity
Procedure, shortened: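 Only genotypes with ≥10 input reads and ≥1 read per output were kept after Illumina sequencing of input and output libraries. These libraries were PCR-built, transcribed mutants of each subunit of a heterodimeric triplet polymerase ribozyme, each put through one triplicate in vitro selection round with frozen incubation at −7 °C, gel excision of extended constructs, streptavidin-bead capture and RT-PCR. Fitness is a logarithmic ratio of genotype enrichment to wild-type enrichment, from inverse-variance-weighted replicate averages, with the logarithm in base 2.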

Q: With U9C C35A C93A G126A A137U as the variant, how does the “polymerase ribozyme fitness (log ratio)” value read?
A: ≤ -4.2

Q: With U9C C38A A113U C118A as the variant, how does the “polymerase ribozyme fitness (log ratio)” value read?
A: ≤ -4.2

Q: For U9C C38U C57A C79G C93U C149G, which “polymerase ribozyme fitness (log ratio)” value is on record?
A: ≤ -4.2

Q: For U9C C54A C87G U134A, which “polymerase ribozyme fitness (log ratio)” value is on record?
A: ≤ -4.2

Q: For U9C C54G, which “polymerase ribozyme fitness (log ratio)” value is on record?
A: ≤ -4.2

Q: Which “polymerase ribozyme fitness (log ratio)” value does the source give for U9C C54U A89G here?
A: ≤ -4.2

Q: Which “polymerase ribozyme fitness (log ratio)” value does the source give for U9C C54U C76A A91G G141C U151G here?
A: ≤ -4.2

Q: For U9C C93A, which “polymerase ribozyme fitness (log ratio)” value is on record?
A: ≤ -4.2

Q: With U9C C96U A122G as the variant, how does the “polymerase ribozyme fitness (log ratio)” value read?
A: ≤ -4.2

Q: With U9C G11C A16C A40G U44A U55G U56A C93U U144C U151G as the variant, how does the “polymerase ribozyme fitness (log ratio)” value read?
A: ≤ -4.2

Q: Which “polymerase ribozyme fitness (log ratio)” value does the source give for U9C G11U G68C U104G C105G C118U G133C here?
A: ≤ -4.2

Q: Which “polymerase ribozyme fitness (log ratio)” value does the source give for U9C G25A A28C C32U C85U here?
A: ≤ -4.2

Q: With U9C G50C G86A C93G C99U U134A A142U as the variant, how does the “polymerase ribozyme fitness (log ratio)” value read?
A: ≤ -4.2

Q: For U9C G50U C85A C116A G136A, which “polymerase ribozyme fitness (log ratio)” value is on record?
A: ≤ -4.2

Q: For U9C G58C A91G C105G A110G, which “polymerase ribozyme fitness (log ratio)” value is on record?
A: ≤ -4.2

Q: For U9C G59A G84C G88A U134A G141A, which “polymerase ribozyme fitness (log ratio)” value is on record?
A: ≤ -4.2

Q: Which “polymerase ribozyme fitness (log ratio)” value does the source give for U9C G68C U101C C149G G152A here?
A: ≤ -4.2

Q: With U9C G70C C72U G92A G117U as the variant, how does the “polymerase ribozyme fitness (log ratio)” value read?
A: ≤ -4.2

Q: With U9C U13A G88A G117A as the variant, how does the “polymerase ribozyme fitness (log ratio)” value read?
A: ≤ -4.2

Q: With U9C U13A U15A C76U G86U as the variant, how does the “polymerase ribozyme fitness (log ratio)” value read?
A: -4.11

Q: Which “polymerase ribozyme fitness (log ratio)” value does the source give for U9C U13C A16G G84A C95A here?
A: ≤ -4.2

Q: With U9C U15C A20U C85A A106G A110U C114A as the variant, how does the “polymerase ribozyme fitness (log ratio)” value read?
A: ≤ -4.2

Q: For U9C U31A U55A G59C U82G C108A C129G U144C, which “polymerase ribozyme fitness (log ratio)” value is on record?
A: ≤ -4.2

Q: For U9C U33A C69A A91G, which “polymerase ribozyme fitness (log ratio)” value is on record?
A: ≤ -4.2

Q: Which “polymerase ribozyme fitness (log ratio)” value does the source give for U9C U44A C75G C87A U101C U146C here?
A: ≤ -4.2

Q: Which “polymerase ribozyme fitness (log ratio)” value does the source give for U9C U44G C85A A110G G152A here?
A: ≤ -4.2

Q: For U9C U44G U56A G68U C79A G84C C95U C103A C125G, which “polymerase ribozyme fitness (log ratio)” value is on record?
A: ≤ -4.2

Q: With U9C U45G G59C G83C C87G C103A G117U G126A as the variant, how does the “polymerase ribozyme fitness (log ratio)” value read?
A: ≤ -4.2

Q: With U9C U53A A91G C108U C125U A137U as the variant, how does the “polymerase ribozyme fitness (log ratio)” value read?
A: ≤ -4.2

Q: For U9C U53G C54A C95U U104C A106U C118U C149G, which “polymerase ribozyme fitness (log ratio)” value is on record?
A: ≤ -4.2

Q: With U9C U55A G70C G84U C95A U102C C103A as the variant, how does the “polymerase ribozyme fitness (log ratio)” value read?
A: ≤ -4.2

Q: For U9G A12C G46C C79U C85U U90C U145A, which “polymerase ribozyme fitness (log ratio)” value is on record?
A: ≤ -4.2

Q: For U9G A12G C96A C125U U134A, which “polymerase ribozyme fitness (log ratio)” value is on record?
A: ≤ -4.2

Q: Which “polymerase ribozyme fitness (log ratio)” value does the source give for U9G A12U C18G G84C U90A A97U U101G A121U here?
A: ≤ -4.2

Q: With U9G A16U A138U as the variant, how does the “polymerase ribozyme fitness (log ratio)” value read?
A: ≤ -4.2

Q: Which “polymerase ribozyme fitness (log ratio)” value does the source give for U9G A17G C54G C75G A147U here?
A: ≤ -4.2

Q: With U9G A19G A39C A47G C76U G84A C103A A142C as the variant, how does the “polymerase ribozyme fitness (log ratio)” value read?
A: ≤ -4.2

Q: For U9G A19U G88C C93G A110G, which “polymerase ribozyme fitness (log ratio)” value is on record?
A: ≤ -4.2

Q: For U9G A19U U31A G62C U77G C93A U111A U134A U139A, which “polymerase ribozyme fitness (log ratio)” value is on record?
A: ≤ -4.2

Q: Which “polymerase ribozyme fitness (log ratio)” value does the source give for U9G A20C U55A C96U A97U here?
A: ≤ -4.2

Q: Which “polymerase ribozyme fitness (log ratio)” value does the source give for U9G A21C C54G U82G G141C here?
A: ≤ -4.2

Q: With U9G A21U A24G C72U A147C as the variant, how does the “polymerase ribozyme fitness (log ratio)” value read?
A: ≤ -4.2

Q: Which “polymerase ribozyme fitness (log ratio)” value does the source give for U9G A22U A47G G88A U104A C118G A120U G141A A147C here?
A: ≤ -4.2

Q: For U9G A22U G48A C57G G59U A60U A73G G80C A122U G126A A142U, which “polymerase ribozyme fitness (log ratio)” value is on record?
A: ≤ -4.2

Q: Which “polymerase ribozyme fitness (log ratio)” value does the source give for U9G A23C C32G U55G G65A C85U C116U C132G here?
A: ≤ -4.2

Q: For U9G A23U G34C A47C C76A C87U, which “polymerase ribozyme fitness (log ratio)” value is on record?
A: ≤ -4.2

Q: With U9G A24U A40C G50A A113U C118G G143U as the variant, how does the “polymerase ribozyme fitness (log ratio)” value read?
A: ≤ -4.2

Q: For U9G A26G G74U C76A G86U G141C, which “polymerase ribozyme fitness (log ratio)” value is on record?
A: ≤ -4.2

Q: With U9G A28C C57A C116A C129G as the variant, how does the “polymerase ribozyme fitness (log ratio)” value read?
A: ≤ -4.2

Q: With U9G A29U G42C A52G G65C C85A A91G G143A as the variant, how does the “polymerase ribozyme fitness (log ratio)” value read?
A: ≤ -4.2

Q: For U9G A30G C93G G126U C129A, which “polymerase ribozyme fitness (log ratio)” value is on record?
A: ≤ -4.2

Q: For U9G A39C G59A A89G C93A U148A, which “polymerase ribozyme fitness (log ratio)” value is on record?
A: ≤ -4.2

Q: Which “polymerase ribozyme fitness (log ratio)” value does the source give for U9G A39C U56A G86A A120U U148G here?
A: ≤ -4.2

Q: With U9G A41G A49C A89G U101G C125A as the variant, how does the “polymerase ribozyme fitness (log ratio)” value read?
A: ≤ -4.2

Q: For U9G A47G, which “polymerase ribozyme fitness (log ratio)” value is on record?
A: -3.86

Q: Which “polymerase ribozyme fitness (log ratio)” value does the source give for U9G A49C C76A G84A C96G C99U U101A A138U G140A here?
A: ≤ -4.2

Q: Which “polymerase ribozyme fitness (log ratio)” value does the source give for U9G A52G U56A C57U G92A G141C U144A here?
A: ≤ -4.2

Q: For U9G A64U A66C A142C, which “polymerase ribozyme fitness (log ratio)” value is on record?
A: ≤ -4.2

Q: With U9G A66G as the variant, how does the “polymerase ribozyme fitness (log ratio)” value read?
A: ≤ -4.2

Q: With U9G A91U C114U U148C as the variant, how does the “polymerase ribozyme fitness (log ratio)” value read?
A: ≤ -4.2

Q: Which “polymerase ribozyme fitness (log ratio)” value does the source give for U9G C10G C35A G84U here?
A: ≤ -4.2

Q: Which “polymerase ribozyme fitness (log ratio)” value does the source give for U9G C10U C27A A73G C87G U90G U145A A150G here?
A: ≤ -4.2

Q: With U9G C10U U55A C95U C105A C108G as the variant, how does the “polymerase ribozyme fitness (log ratio)” value read?
A: ≤ -4.2

Q: For U9G C14A A24U C105G, which “polymerase ribozyme fitness (log ratio)” value is on record?
A: ≤ -4.2

Q: Which “polymerase ribozyme fitness (log ratio)” value does the source give for U9G C14G A110C C123U G141A here?
A: ≤ -4.2

Q: Which “polymerase ribozyme fitness (log ratio)” value does the source give for U9G C14U C18G A23G A60C C95U C96U A147C here?
A: ≤ -4.2

Q: For U9G C18U G46C G83C A107U C125A, which “polymerase ribozyme fitness (log ratio)” value is on record?
A: ≤ -4.2

Q: With U9G C27G C36A C57A U104G A110G A119G as the variant, how does the “polymerase ribozyme fitness (log ratio)” value read?
A: ≤ -4.2

Q: For U9G C27U U56A A60C U82G A91U, which “polymerase ribozyme fitness (log ratio)” value is on record?
A: ≤ -4.2

Q: Which “polymerase ribozyme fitness (log ratio)” value does the source give for U9G C32G U56A G62U G68A G88U here?
A: ≤ -4.2

Q: For U9G C32U A41U A52U U53A C57G G71C, which “polymerase ribozyme fitness (log ratio)” value is on record?
A: ≤ -4.2

Q: Which “polymerase ribozyme fitness (log ratio)” value does the source give for U9G C32U C38U A49C G58A A60U G86A here?
A: ≤ -4.2

Q: For U9G C35A A39G G83U G92C U134G U135G G136U, which “polymerase ribozyme fitness (log ratio)” value is on record?
A: ≤ -4.2

Q: With U9G C35A A41C G88C as the variant, how does the “polymerase ribozyme fitness (log ratio)” value read?
A: ≤ -4.2

Q: Which “polymerase ribozyme fitness (log ratio)” value does the source give for U9G C35U A39U C79G U146G C149G here?
A: ≤ -4.2

Q: With U9G C36A C54U G59A C69A U77A G88C as the variant, how does the “polymerase ribozyme fitness (log ratio)” value read?
A: ≤ -4.2

Q: For U9G C38U C96G A97U A138U, which “polymerase ribozyme fitness (log ratio)” value is on record?
A: ≤ -4.2

Q: With U9G C43A C54A C75G C93G U146A as the variant, how does the “polymerase ribozyme fitness (log ratio)” value read?
A: ≤ -4.2

Q: With U9G C43G C85G C87U C96U C118A A119U A120G as the variant, how does the “polymerase ribozyme fitness (log ratio)” value read?
A: ≤ -4.2

Q: For U9G C51U A60G C69G C96U, which “polymerase ribozyme fitness (log ratio)” value is on record?
A: ≤ -4.2

Q: Which “polymerase ribozyme fitness (log ratio)” value does the source give for U9G C85A G143A here?
A: ≤ -4.2

Q: Which “polymerase ribozyme fitness (log ratio)” value does the source give for U9G C85G here?
A: ≤ -4.2

Q: For U9G C85U C95U U146A, which “polymerase ribozyme fitness (log ratio)” value is on record?
A: ≤ -4.2

Q: With U9G C87G as the variant, how does the “polymerase ribozyme fitness (log ratio)” value read?
A: ≤ -4.2
